Measurements: PubChem BioAssay AID602293 (National Center for Advancing Translational Sciences (NCATS), 2012)
In all, about 1,300 compounds went through this assay and about 30 (2%) were called active. Another 10% or so got no clear call; they are omitted. Calls follow the shape of the dose curve; as a rule, active = well fitted inhibition curve with a large enough effect; inconclusive = small, poorly fitted or top-dose-only effect; inactive = flat fitted curve, though single readings scatter. This is one part of the list.

experiment: qHTS for antagonists of the Thyroid Stimulation Hormone Receptor: Hit Validation in HTRF Activity in a Luteinizing Hormone Receptor Cell Line; conditions: LHR-expressing cell line, cAMP HTRF, antagonist mode; series mostly up to 58 µM; activity change, negative = inhibition: at the top concentration
How it was run: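 Counter-screen on LH receptor–transfected HEK 293 cells: 30 min compound exposure at room temperature in medium containing 100 uM RO 20-1724 phosphodiesterase inhibitor. Cellular cAMP read by competitive HTRF after lysis with d2-cAMP and anti-cAMP antibody (330 nm excitation; 615/660 nm emission).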
% is scaled to controls: 0 for no effect and ±100 for the full control effect; potency is read from the fitted curve at half-maximal effect.

Row | Compound | activity change, negative = inhibition | Potency
1 | N#C/C(=C(/O)COC(=O)c1ccc(C#N)cc1)c1nc2ccccc2s1 | inactive: 1.45% | –
2 | CCC(C)(C)C1CCC(NC(=O)N2CCN(c3ccccc3O)CC2)CC1 (stereo unspecified) | inactive: -0.692% | –
3 | COC(=O)c1cc(-c2c[nH]c3ccccc23)n[nH]1 | inactive: 0.527% | –
4 | Cc1c(C(=O)OC/C(O)=C(\C#N)c2nc3ccccc3[nH]2)oc2ccc(Br)cc12 | inactive: -2.01% | –
5 | O=C(CSc1ncnc2ccccc12)c1ccc2c(c1)OCCO2 | inactive: -2.55% | –
6 | O=C(NC(=S)Nc1ccccc1)c1cc(-c2ccccc2)nc2ccccc12 | inactive: -3.13% | –
7 | CCOc1cc(/C=C(\C#N)c2nc(-c3cccs3)c(NC(C)=O)s2)ccc1O | inactive: -7.62% | –
8 | Cc1ccc(S(=O)(=O)/N=C2\C=C(Nc3cccc(C(=O)O)c3)C(=O)c3ccccc32)c(C)c1 | inactive: 2.48% | –
9 | COc1ccc(C(c2nnnn2Cc2cccs2)N2CCN(c3ccccc3)CC2)cc1OC (stereo unspecified) | inactive: 0.958% | –
10 | CC(=O)c1ccc(NC(=O)C(C)N(C)CC(=O)Nc2ccc(N3CCOCC3)cc2)cc1 (stereo unspecified) | inactive: 2.74% | –
11 | CCOc1cc(C(=S)N2CCOCC2)ccc1OC(=O)c1ccccc1 | inactive: -1.14% | –
12 | O=C(Nc1nc(-c2cccs2)cs1)c1ccc(S(=O)(=O)N2CCCCC2)cc1 | inactive: -4.9% | –
13 | CC(Sc1nn(-c2ccc(F)cc2)c(=S)s1)C(=O)c1c(N)n(C)c(=O)n(C)c1=O (stereo unspecified) | inactive: -2.58% | –
14 | Cc1cc(C=O)c(C)n1-c1ccc(NC2CCCC2)c([N+](=O)[O-])c1 | inactive: 0.893% | –
15 | COc1ccc(S(=O)(=O)Nc2ccc(C)cc2)cc1N(C)S(=O)(=O)c1ccc(Cl)cc1 | inactive: -3.51% | –
16 | COc1cc2c(cc1OC)CN(C(=S)NC(=O)c1ccccc1)CC2 | inactive: 2.87% | –
17 | O=C(Nc1ccncc1)C1CCN(S(=O)(=O)c2cccc(C(F)(F)F)c2)CC1 | inactive: -0.603% | –
18 | CC(C)c1ccc(/C=C/C(=O)NCCC2=CCCCC2)cc1 | inactive: 1.16% | –
19 | COc1ccc(-c2nnc(NC(=O)c3ccc4c(c3)OCCO4)o2)cc1 | inactive: 0.767% | –
20 | Cc1ccc(NC(=O)Cn2nnc(C(=O)NCCc3ccccc3)c2N)c(C)c1 | inactive: 2.31% | –
21 | COc1ccc(C(=O)/C=C/Nc2ccc(S(=O)(=O)Nc3cccc(C(C)=O)c3)cc2)cc1 | inactive: -8.54% | –
22 | Cc1ccc(C(=O)COC(=O)CCN2C(=O)C3C4CCC(C4)C3C2=O)cc1[N+](=O)[O-] (stereo unspecified) | inactive: 0.424% | –
23 | COc1cccc(-c2nc(CS(=O)(=O)CC(=O)N3CCCCC3)c(C)o2)c1 | inactive: -1.03% | –
24 | O=C(c1cc(COc2cccc3cnccc23)on1)N1CCCC(CCCO)C1 (stereo unspecified) | inactive: -6.85% | –
25 | CC1(C)CC(=O)c2c(nc3ccccc3c2N)C1 | inactive: -1.77% | –
26 | O=S(=O)(Nc1ccc2cn[nH]c2c1)c1cc(Br)ccc1Br | inactive: -0.271% | –

Row | Compound | activity change, negative = inhibition | Potency
27 | CCc1cc2c(NCc3ccccc3)nc(C)nc2s1 | inactive: -3.56% | –
28 | COC(=O)c1nc2n(n1)C(c1cccc(Cl)c1)C1=C(CCCC1=O)N2 (stereo unspecified) | inactive: 2.58% | –
29 | CCCCCCSc1ccc(-c2nc3ccc(Cl)cn3c2NCCCC)cc1OC | inactive: -1.07% | –
30 | Cc1ccc(N2C(=O)C3C4C=CC(CC4)C3C2=O)cc1Cl (stereo unspecified) | inactive: 0.13% | –
31 | Cc1nn(-c2ccc(N3CCOCC3)nn2)c(C)c1CCC(=O)NCc1ccccc1F | inactive: 2.89% | –
32 | CC1CCCC(N2CCN(S(=O)(=O)c3ccccc3)CC2)C1 (stereo unspecified) | inactive: 1.17% | –
33 | COc1cccc(CNC(=O)CN2C(=O)CSc3ccc(S(=O)(=O)N4CCOCC4)cc32)c1 | inactive: 1.46% | –
34 | O=c1[nH]c(=S)[nH]c2c1CN(Cc1ccc(F)cc1)CC2 | inactive: -0.904% | –
35 | CCN(c1ccccc1)S(=O)(=O)c1ccc(NCC2COc3ccccc3O2)nc1 (stereo unspecified) | inactive: -1.55% | –
36 | CC(C)COc1cccc(-c2cc(C(=O)Nc3ccon3)c3ccccc3n2)c1 | inactive: -0.952% | –
37 | Cc1nc2ccc(Nc3nc4cc(S(=O)(=O)N5CCOCC5)ccc4o3)cc2s1 | inactive: -1.65% | –
38 | CC(=O)c1ccc(N2CCN(C(=S)Nc3ccc(Oc4ccccc4)cc3)CC2)cc1 | inactive: -2.45% | –
39 | COCCn1nnnc1C(c1cccs1)N1CCN(c2cc(C)ccc2C)CC1 (stereo unspecified) | inactive: -2.34% | –
40 | CC(C)Cn1c(-c2csc3c2CCCC3)n[nH]c1=S | inactive: 2.71% | –
41 | CC1CCN(Cc2c(C(=O)N/N=C/c3cc(Cl)ccc3O)nnn2-c2nonc2N)CC1 | inactive: 2.76% | –
42 | CC(NC(=O)c1ccc([N+](=O)[O-])o1)C12CC3CC(CC(C3)C1)C2 (stereo unspecified) | inactive: -0.379% | –
43 | Cc1cc(C(=O)NC2CCCc3c2cnn3-c2ccc(C(C)(C)C)cc2)nn1C (stereo unspecified) | inactive: -1.72% | –
44 | CC(C)(C)NC(=O)C(c1ccc(O)cc1)N(Cc1ccccc1)C(=O)CCC(=O)Nc1nccs1 (stereo unspecified) | inactive: 0.618% | –
45 | O=C(COc1ccc(-c2ccccc2)cc1)Nc1cccnc1 | inactive: 0.544% | –
46 | CCOC(=O)c1sc(NC(=O)CSc2n[nH]c(-c3ccncc3)n2)c(C#N)c1C | inactive: 0.55% | –
47 | CCOC(=O)N1CCN(C(=O)CCc2ccccc2)CC1 | inactive: 1.26% | –
48 | CCCn1c(=O)c2[nH]c(C3CCCC3)nc2n(CCC)c1=O | inactive: 0.486% | –
49 | c1ccc(C(c2nnnn2Cc2ccco2)N2CCN(c3nc4ccccc4s3)CC2)cc1 (stereo unspecified) | inactive: -1.35% | –
50 | Cc1cccc(CC(=O)NCC(=O)NCc2cc(=O)n(C)c(=O)n2C)c1 | inactive: 1.21% | –
51 | Cc1ccc(Cl)cc1NC(=O)c1cc2ccccc2cc1O | inactive: -9.65% | –
52 | Cc1cccc(N(C(=O)c2nsc(Cl)c2Cl)C(C(=O)NC2CCCC2)c2ccc(O)cc2)c1C (stereo unspecified) | – | active: 12 µM

Row | Compound | activity change, negative = inhibition | Potency
53 | O=C(Nc1ccncc1)c1ccc(Cl)c(S(=O)(=O)N2CCc3ccccc32)c1 | inactive: -6.47% | –
54 | CCCN1C(=O)c2ccc(C(=O)Nc3cc(C)ccc3O)cc2C1=O | inactive: 2.99% | –
55 | COc1ccc(N2C(=O)NC(NS(=O)(=O)c3ccc(Cl)cc3)(C(F)(F)F)C2=O)cc1 (stereo unspecified) | inactive: -0.112% | –
56 | CCc1noc(C)c1C(=O)Oc1ccc(N(C)S(=O)(=O)c2ccc(C)cc2)cc1 | inactive: -9.49% | –
57 | CC(=O)c1cccc(NC(=O)c2sc3nc4n(c(=O)c3c2C)CCCC4)c1 | inactive: -1.36% | –
58 | O=C(NN=C1CCCC1)c1cc(Cl)cc(Cl)c1O | inactive: -0.628% | –
59 | Fc1ccc(/C=C2\CCCC3=C2Nc2ncnn2C3c2ccc(F)cc2)cc1 (stereo unspecified) | inactive: -0.807% | –
60 | COc1ccc(NC(=O)CCC2CCCCC2)cc1S(=O)(=O)N1CCCCC1 | inactive: -0.0089% | –
61 | COc1cccc(OC)c1C(=O)Nc1sc2c(c1C#N)CCC2 | inactive: 2.11% | –
62 | CSCCCNC(=O)c1ccc(OC2CCN(C(=O)c3cccnc3)CC2)cc1 | inactive: 1.78% | –
63 | CC(C)C1Nc2c(O)cc(Cl)c([N+](=O)[O-])c2C2C=CCC21 (stereo unspecified) | inactive: 1.7% | –
64 | c1ccc2c(COn3nnc4ccccc43)cccc2c1 | inactive: 0.456% | –
65 | COCC1CCCCN1C(=O)C1CCN(c2nc(-c3ccccc3)nc3c2CCC3)CC1 (stereo unspecified) | inactive: -4.78% | –
66 | COc1cc(NC(=O)Cn2nc(C(F)(F)F)c(Br)c2C)cc([N+](=O)[O-])c1 | inactive: -0.304% | –
67 | CCn1nc(C)c(CN2CCCC(CNS(=O)(=O)c3ccc(OC)cc3)C2)c1C (stereo unspecified) | inactive: -0.0173% | –
68 | COc1ccc(CNC(=O)C2CCCN2C(=O)NCc2ccccc2)cc1 (stereo unspecified) | inactive: -0.212% | –
69 | O=C(COC(=O)c1ccccc1SCC(=O)N1CCCC1)Nc1ccccc1 | inactive: -1.77% | –
70 | O=C(NC(=S)Nc1ccc(C(=O)N2CCOCC2)cc1)c1ccc([N+](=O)[O-])cc1 | inactive: -1.19% | –
71 | O=[N+]([O-])c1ccc(Sc2cccc[n+]2[O-])c2nonc12 | – | active: 23.9 µM
72 | CNc1c(NC(=O)c2ccc3c(c2)OCO3)c(=O)oc2ccccc12 | inactive: 2.31% | –
73 | COc1ccc(C2c3ccc(O)cc3Oc3ncn(Cc4ccco4)c(=N)c32)cc1 (stereo unspecified) | inactive: 1.3% | –
74 | CCOc1ccccc1NC(=O)CSc1nc2ccccc2c(=O)n1CC1CCCO1 (stereo unspecified) | inactive: 1.54% | –
75 | O=C(/C=C/c1ccc(Cl)cc1Cl)NCCSCc1ccccc1 | inactive: -5.45% | –
76 | O=[N+]([O-])c1ccc(COc2cccc(CNc3ccc(F)cc3)c2)cc1 | inactive: 2.34% | –
77 | COc1ccc(S(=O)(=O)N2CCN(c3cccc(C)c3C)CC2)cc1 | inactive: 0.716% | –
78 | O=C(NCC1CCCO1)c1cccc2c1C(=O)c1ccc(N3CCC(Cc4ccccc4)CC3)cc1S2(=O)=O (stereo unspecified) | inactive: -8.99% | –

Row | Compound | activity change, negative = inhibition | Potency
79 | Cc1cccc(NC(=S)NCC(C)CSc2ccc(Cl)cc2)c1 (stereo unspecified) | inactive: -2.86% | –
80 | O=C(O)/C=C/c1ccc(S(=O)(=O)Nc2ccccc2C(=O)Nc2ccc(F)cc2)cc1 | inactive: -0.301% | –
81 | CCS(=O)(=O)c1ncc(Cl)c(C(=O)Nc2ccc(S(=O)(=O)N(C)c3ccccc3)cc2)n1 | – | active: 42.6 µM
82 | Cc1ccc2c(CN3CCN(S(=O)(=O)c4ccc(Cl)cc4)CC3)cc(=O)oc2c1C | inactive: -1.49% | –
83 | CC(=O)N/C(=C\c1ccc(Cl)cc1)C(=O)O | inactive: 1.95% | –
84 | COc1cccc(NC(=S)N2CCCN(Cc3ccc(F)cc3)C2)c1 | inactive: 0.168% | –
85 | Cc1nnc(SCC(=O)Nc2nonc2C)s1 | inactive: -1.27% | –
86 | O=C1NC(=S)S/C1=C\c1ccc2ccccc2c1 | inactive: -0.809% | –
87 | O=C(O)c1ccc(S(=O)(=O)N(Cc2ccccc2)Cc2ccccc2)cc1 | inactive: 0.446% | –
88 | O=C1C=C(c2ccc3[nH]ccc3c2)C[C@@H](c2ccc(Cl)cc2)C1 | inactive: -2.81% | –
89 | CCOc1ccccc1N1CCN(C(=O)CCCN2C(=O)c3cccc4cccc(c34)C2=O)CC1 | inactive: 1.98% | –
90 | Cc1c(C(=O)NCc2ccc3c(c2)OCO3)sc2nc(-c3ccccc3)cn12 | inactive: 0.0777% | –
91 | Cc1ccc(-n2nc3c(=O)n(C(C)C(=O)NC4CC4)nc(C)c3c2C)cc1 (stereo unspecified) | inactive: 2.26% | –
92 | O=C(Nc1ccc(C(F)(F)F)cc1)c1csc(-c2ccncc2)n1 | inactive: -5.69% | –
93 | COc1ccc(NC(=S)N(CCCN2CCOCC2)C(C)c2cc3cccc(OC)c3o2)cc1 (stereo unspecified) | inactive: 2.94% | –
94 | COc1cccc(CN(C)C(=O)c2ccc(Oc3ccccc3)cc2)c1OC | inactive: 1.12% | –
95 | O=C(Nc1nccs1)c1ccc(COc2c(F)c(F)cc(F)c2F)o1 | inactive: 0.958% | –
96 | COc1ccc(F)cc1CN1CCN(C(=O)CCC(=O)Nc2nnc(CC(C)C)s2)CC1 | inactive: 1.03% | –
97 | CCOc1cc(N2CCOCC2)c(OCC)cc1NC(=O)c1cc(S(=O)(=O)N2CCOCC2)ccc1C | inactive: -0.64% | –
98 | Cc1ccc(C)c(S(=O)(=O)N2CCN(C(=O)C3CCN(c4ncnc5sc(C)c(C)c45)CC3)CC2)c1 | inactive: -4.34% | –
99 | Cc1ccc(S(=O)(=O)N(CC(=O)NCc2ccccn2)c2ccc(Cl)cc2)cc1 | inactive: -0.666% | –
100 | NC(=O)c1cc(S(=O)(=O)NCc2ccc(F)cc2)cs1 | inactive: 0.264% | –
101 | NS(=O)(=O)c1ccc(NCc2ccccc2OCc2ccccc2F)cc1 | inactive: -2.31% | –
